# Test results as given in the supplement of paper PMC8728848.
# The list shows a part of the results.
# B1: PX14375C-bth-509-28-509 (Bacteroides thetaiotaomicron) (protein)
# chain: RSPQGQFTEDDNPNALVNGKIYNVYTMMRSFDITAGTPAIAIHYLRSEDSEKGSIPSDGSDVAEMYDDFLYTPTNGLLGSYWGKNYAIIYQCNDILDAIAEKETAGQTETEDIINKGEASFFRAYCYFNLVRAFGEVPLVTYKINDASEANIPKTTADKIYEQIDTDLKTAEESLPETWSTEYTGRLTWGAARSLHARTYMMRSDWDNMYKASTDVINKGLYNLKTPYNEIFTDDGENSGGSIFELQCTATAALPQSDVIGSQFCEVQGVRGAGQWDLGWGWHMATQLMADAYETGDPRKNATLLYFRKTDDEPITPENTNEPYGESPISPAMGAYFNKKAYTDPALRKEYTNKGFWVNIRLIRYSDVVLMAAEAANEKNIPGEAVDYLEMVRARARGTNTNILPKITTNDQGELREAIRHERRVELGLEPDRFYDLVRWGIASEVLHAAGKVNYQDKNALLPLPQSEIDKSKGVLVQNPDY
# What was measured:
# Test in all cases: glycan array binding signal (z-score within array); higher = stronger binding
# Conditions in all cases: glycan notation: IUPAC condensed, linker removed
# Gal(b1-2)Gal = biological target: Gal(b1-2)Gal
# In short: (§1)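 Arrays were curated from the Consortium for Functional Glycomics database, 3228 in total, and kept only where the protein sequence was available. Binding is expressed as a within-array Z-score. This score was averaged across arrays of the same protein sequence at different concentrations or buffers and across linkers, and negative values can be read as non-binding.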
# Gal(b1-3)Gal = biological target: Gal(b1-3)Gal
# In short: as §1
# Gal(b1-3)Gal(b1-4)GlcNAc = biological target: Gal(b1-3)Gal(b1-4)GlcNAc
# In short: as §1
# Gal(b1-3)GalNAc = biological target: Gal(b1-3)GalNAc
# In short: as §1
# [1] = biological target: Gal(b1-3)GalNAc(a1-3)[Fuc(a1-2)]Gal(b1-4)Glc
# In short: as §1
# [2] = biological target: Gal(b1-3)GalNAc(a1-3)[Fuc(a1-2)]Gal(b1-4)GlcNAc
# In short: as §1
# Gal(b1-3)GalNAc(b1-3)Gal = biological target: Gal(b1-3)GalNAc(b1-3)Gal
# In short: as §1
# [3] = biological target: Gal(b1-3)GalNAc(b1-3)Gal(a1-4)Gal(b1-4)Glc
# In short: as §1
# [4] = biological target: Gal(b1-3)GalNAc(b1-4)Gal(b1-4)Glc
# In short: as §1
# [5] = biological target: Gal(b1-3)GalNAc(b1-4)[Neu5Ac(a2-3)]Gal(b1-4)Glc
# In short: as §1
# Gal(b1-3)GlcNAc = biological target: Gal(b1-3)GlcNAc
# In short: as §1
# [6] = biological target: Gal(b1-3)GlcNAc(a1-3)Gal(b1-4)GlcNAc
# In short: as §1
# [7] = biological target: Gal(b1-3)GlcNAc(a1-6)Gal(b1-4)GlcNAc
# In short: as §1
# Gal(b1-3)GlcNAc(b1-2)Man = biological target: Gal(b1-3)GlcNAc(b1-2)Man
# In short: as §1
# [8] = biological target: Gal(b1-3)GlcNAc(b1-2)Man(a1-3)[Gal(b1-3)GlcNAc(b1-2)Man(a1-6)]Man(b1-4)GlcNAc(b1-4)GlcNAc
# In short: as §1
# [9] = biological target: Gal(b1-3)GlcNAc(b1-2)Man(a1-3)[Gal(b1-3)GlcNAc(b1-2)Man(a1-6)]Man(b1-4)GlcNAc(b1-4)[Fuc(a1-6)]GlcNAc
# In short: as §1
# [10] = biological target: Gal(b1-3)GlcNAc(b1-2)Man(a1-3)[GlcNAc(b1-4)][Gal(b1-3)GlcNAc(b1-2)Man(a1-6)]Man(b1-4)GlcNAc(b1-4)GlcNAc
# In short: as §1
# [11] = biological target: Gal(b1-3)GlcNAc(b1-2)[Gal(b1-3)GlcNAc(b1-6)]Man(a1-6)[Gal(b1-3)GlcNAc(b1-2)Man(a1-3)]Man(b1-4)GlcNAc(b1-4)GlcNAc
# In short: as §1
# [12] = biological target: Gal(b1-3)GlcNAc(b1-3)Gal(b1-3)GlcNAc
# In short: as §1
# [13] = biological target: Gal(b1-3)GlcNAc(b1-3)Gal(b1-4)Glc
# In short: as §1
# [14] = biological target: Gal(b1-3)GlcNAc(b1-3)Gal(b1-4)GlcNAc
# In short: as §1
# [15] = biological target: Gal(b1-3)GlcNAc(b1-3)Gal(b1-4)GlcNAc(b1-2)Man(a1-3)[Gal(b1-3)GlcNAc(b1-3)Gal(b1-4)GlcNAc(b1-2)Man(a1-6)]Man(b1-4)GlcNAc(b1-4)GlcNAc
# In short: as §1
# [16] = biological target: Gal(b1-3)GlcNAc(b1-3)Gal(b1-4)GlcNAc(b1-2)[Gal(b1-3)GlcNAc(b1-3)Gal(b1-4)GlcNAc(b1-6)]Man(a1-6)[Gal(b1-3)GlcNAc(b1-3)Gal(b1-4)GlcNAc(b1-2)Man(a1-3)]Man(b1-4)GlcNAc(b1-4)[Fuc(a1-6)]GlcNAc
# In short: as §1
# [17] = biological target: Gal(b1-3)GlcNAc(b1-3)Gal(b1-4)GlcNAc(b1-3)Gal(b1-4)GlcNAc(b1-2)[Gal(b1-3)GlcNAc(b1-3)Gal(b1-4)GlcNAc(b1-3)Gal(b1-4)GlcNAc(b1-6)]Man(a1-6)[Gal(b1-3)GlcNAc(b1-3)Gal(b1-4)GlcNAc(b1-3)Gal(b1-4)GlcNAc(b1-2)Man(a1-3)]Man(b1-4)GlcNAc(b1-4)[Fuc(a1-6)]GlcNAc
# In short: as §1
# [18] = biological target: Gal(b1-3)GlcNAc(b1-3)Gal(b1-4)GlcNAc(b1-6)[Gal(b1-3)GlcNAc(b1-3)]Gal(b1-4)Glc
# In short: as §1
# [19] = biological target: Gal(b1-3)GlcNAc(b1-3)Gal(b1-4)[Fuc(a1-3)]GlcNAc
# In short: as §1
# [20] = biological target: Gal(b1-3)GlcNAc(b1-3)Gal(b1-4)[Fuc(a1-3)]GlcNAc(b1-6)[Gal(b1-3)GlcNAc(b1-3)]Gal(b1-4)Glc
# In short: as §1
# [21] = biological target: Gal(b1-3)GlcNAc(b1-3)GalNAc
# In short: as §1
# [22] = biological target: Gal(b1-3)GlcNAc(b1-6)Gal(b1-4)GlcNAc
# In short: as §1
# [23] = biological target: Gal(b1-3)GlcNAc(b1-6)GalNAc
# In short: as §1
# [24] = biological target: Gal(b1-3)GlcNAc(b1-6)[Gal(b1-3)]GalNAc
# In short: as §1
# Gal(b1-3)GlcNAc6S = biological target: Gal(b1-3)GlcNAc6S
# In short: as §1
# [25] = biological target: Gal(b1-3)[Fuc(a1-4)]GlcNAc
# In short: as §1
# [26] = biological target: Gal(b1-3)[Fuc(a1-4)]GlcNAc(b1-2)Man
# In short: as §1
# [27] = biological target: Gal(b1-3)[Fuc(a1-4)]GlcNAc(b1-2)Man(a1-3)[Gal(b1-3)[Fuc(a1-4)]GlcNAc(b1-2)Man(a1-6)]Man(b1-4)GlcNAc(b1-4)[Fuc(a1-6)]GlcNAc
# In short: as §1
# [28] = biological target: Gal(b1-3)[Fuc(a1-4)]GlcNAc(b1-3)Gal(b1-3)[Fuc(a1-4)]GlcNAc
# In short: as §1
# [29] = biological target: Gal(b1-3)[Fuc(a1-4)]GlcNAc(b1-3)Gal(b1-4)[Fuc(a1-3)]GlcNAc
# In short: as §1
# [30] = biological target: Gal(b1-3)[Fuc(a1-4)]GlcNAc(b1-6)GalNAc
# In short: as §1
# [31] = biological target: Gal(b1-3)[GlcNAc(b1-6)]GalNAc
# In short: as §1
# [32] = biological target: Gal(b1-3)[Neu5Ac(a2-6)]GalNAc
# In short: as §1
# [33] = biological target: Gal(b1-3)[Neu5Ac(a2-6)]GlcNAc(b1-4)Gal(b1-4)Glc
# In short: as §1
# [34] = biological target: Gal(b1-3)[Neu5Ac(b2-6)]GalNAc
# In short: as §1
# Gal(b1-4)Gal = biological target: Gal(b1-4)Gal
# In short: as §1
# [35] = biological target: Gal(b1-4)GalNAc(a1-3)[Fuc(a1-2)]Gal(b1-4)GlcNAc
# In short: as §1
# [36] = biological target: Gal(b1-4)GalNAc(b1-3)[Fuc(a1-2)]Gal(b1-4)GlcNAc
# In short: as §1
binder,measurement,setting,value
B1,glycan array binding signal (z-score),Gal(b1-2)Gal,-0.211
same,glycan array binding signal (z-score),Gal(b1-3)Gal,-0.237
same,glycan array binding signal (z-score),Gal(b1-3)Gal(b1-4)GlcNAc,-0.316
same,glycan array binding signal (z-score),Gal(b1-3)GalNAc,-0.361
same,glycan array binding signal (z-score),[1],-0.271
same,glycan array binding signal (z-score),[2],-0.448
same,glycan array binding signal (z-score),Gal(b1-3)GalNAc(b1-3)Gal,-0.286
same,glycan array binding signal (z-score),[3],-0.381
same,glycan array binding signal (z-score),[4],-0.393
same,glycan array binding signal (z-score),[5],-0.247
same,glycan array binding signal (z-score),Gal(b1-3)GlcNAc,-0.186
same,glycan array binding signal (z-score),[6],-0.414
same,glycan array binding signal (z-score),[7],0.022
same,glycan array binding signal (z-score),Gal(b1-3)GlcNAc(b1-2)Man,-0.371
same,glycan array binding signal (z-score),[8],1.89
same,glycan array binding signal (z-score),[9],-0.115
same,glycan array binding signal (z-score),[10],-0.222
same,glycan array binding signal (z-score),[11],-0.353
same,glycan array binding signal (z-score),[12],-0.361
same,glycan array binding signal (z-score),[13],-0.374
same,glycan array binding signal (z-score),[14],-0.144
same,glycan array binding signal (z-score),[15],-0.167
same,glycan array binding signal (z-score),[16],0.234
same,glycan array binding signal (z-score),[17],1.23
same,glycan array binding signal (z-score),[18],-0.124
same,glycan array binding signal (z-score),[19],-0.265
same,glycan array binding signal (z-score),[20],-0.581
same,glycan array binding signal (z-score),[21],0.151
same,glycan array binding signal (z-score),[22],-0.342
same,glycan array binding signal (z-score),[23],1.05
same,glycan array binding signal (z-score),[24],0.239
same,glycan array binding signal (z-score),Gal(b1-3)GlcNAc6S,-0.208
same,glycan array binding signal (z-score),[25],-0.195
same,glycan array binding signal (z-score),[26],-0.21
same,glycan array binding signal (z-score),[27],0.351
same,glycan array binding signal (z-score),[28],-0.126
same,glycan array binding signal (z-score),[29],-0.485
same,glycan array binding signal (z-score),[30],0.282
same,glycan array binding signal (z-score),[31],-0.372
same,glycan array binding signal (z-score),[32],-0.235
same,glycan array binding signal (z-score),[33],-0.26
same,glycan array binding signal (z-score),[34],-0.373
same,glycan array binding signal (z-score),Gal(b1-4)Gal,-0.336
same,glycan array binding signal (z-score),[35],-0.387
same,glycan array binding signal (z-score),[36],-0.406
